In PubChem BioAssay AID210 (DTP/NCI, 2004):
Inconclusive results and toxic doses are left out. For part of its entries the source gives two or more results. This list holds those alone. An entry can have further records. Values that stand side by side differ for a reason that is not stated; dose, time, organism, isomer or construct need not be as stated for each record.

Test system: CD2F1 mice, ip Colon 26 adenocarcinoma, median survival T/C
Assay: NCI In Vivo Anticancer Drug Screen. Data for tumor model Colon 26 Adenocarcinoma (intraperitoneal) in CD2F1 (CDF1) mice
Settings: endpoint: median survival time, higher = longer survival
Procedure: The antitumor activity of compounds was measured in mice bearing transplantable tumors. Survival or tumor size were measured and the results are expressed as the measurement made in the treated group (T) divided by the measurement made in the vehicle treated control group (C). The tumor model used in this assay is Colon 26 Adenocarcinoma (intraperitoneal) in CD2F1 (CDF1) mice

N/C(=N\O)c1cn(C2OC(CO)C(O)C2O)c2ncnc(N)c12 (stereo not given)
T/C (dose: 4.0 mg/kg/injection, schedule: Q04DX003 (ip), vehicle: Klucel (hydroxypropylcellulose) (HPC)): 105 % of control and 165 % of control
T/C (dose: 8.0 mg/kg/injection, schedule: Q04DX003 (ip), vehicle: Klucel (hydroxypropylcellulose) (HPC)): 118 % of control and 192 % of control

CC1CCC(NC(=O)N(CCCl)N=O)CC1 (stereo not given)
T/C (dose: 35.0 mg/kg/injection, schedule: Q07DX003 (ip), vehicle: saline with Tween-80): 119 % of control and 171 % of control

CN(C)CCNc1ccc(NCCN(C)C)c2c1C(=O)c1ccccc1C2=O
T/C (dose: 20.0 mg/kg/injection, schedule: Q01DX009 (ip), vehicle: acid diluted with saline): 113 % of control and 152 % of control

S=c1nc[nH]c2nc[nH]c12
T/C (dose: 25.0 mg/kg/injection, schedule: Q04DX003 (ip), vehicle: Klucel (hydroxypropylcellulose) (HPC)): 117 % of control and 164 % of control
